# In the supplement of paper PMC3334620:
# The full ranking holds about 33,000 sequences; the median of “E-score (-0.5 to 0.5)” is about -0.035, and the highest 2% start at about 0.34. Some of the results follow.
# Target: T1, Mot3 (UniProt P54785)
# T1 sequence: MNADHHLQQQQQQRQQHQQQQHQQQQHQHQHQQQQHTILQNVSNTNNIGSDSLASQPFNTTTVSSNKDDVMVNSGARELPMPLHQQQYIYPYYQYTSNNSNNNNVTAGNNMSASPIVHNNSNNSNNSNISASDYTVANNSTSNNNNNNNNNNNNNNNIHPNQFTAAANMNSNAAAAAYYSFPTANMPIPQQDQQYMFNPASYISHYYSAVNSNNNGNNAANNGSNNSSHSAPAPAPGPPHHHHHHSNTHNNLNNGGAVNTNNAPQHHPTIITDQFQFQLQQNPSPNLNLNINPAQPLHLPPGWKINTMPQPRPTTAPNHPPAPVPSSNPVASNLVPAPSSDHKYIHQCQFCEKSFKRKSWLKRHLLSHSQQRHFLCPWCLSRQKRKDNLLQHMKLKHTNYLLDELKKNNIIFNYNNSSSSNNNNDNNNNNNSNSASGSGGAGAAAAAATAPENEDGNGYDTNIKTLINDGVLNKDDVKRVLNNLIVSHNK
# Experiment: PBM E-score (8-mer binding enrichment) (E-score (-0.5 to 0.5)); higher = stronger / more preferred TF binding; most listed sequences are background and not binding sites
# Settings: protein concentration: 200 nM; construct: GST-full length
# Method in brief: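 Yeast transcription factors carrying a GST tag, as full-length proteins or DNA-binding domains, were produced by PURExpress in vitro transcription/translation. About 100-200 nM protein was applied to universal all-10-mer Agilent arrays, double-stranded by primer extension on fresh or once-stripped slides. Bound protein was detected with fluorescent anti-GST, and scans were normalised with masliner. The Universal PBM Analysis Suite gave each ungapped eight-base word, pooled with its reverse complement, an E-score, a modified Wilcoxon-Mann-Whitney statistic.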
row,Sequence,PBM E-score
1,CACACAGC,0.224
2,CCTGAATA,0.121
3,ATATGTAC,0.274
4,CGCGCACC,-0.0408
5,AGAGCAGA,-0.0286
6,GAACGCGA,0.153
7,CGAATTCG,-0.137
8,CAGAGGCA,0.299
9,AGACGGAT,-0.0845
10,ATAGAAAA,0.0494
11,AAGCCGCT,-0.228
12,ACCGTATA,-0.0379
13,GCCAAGGC,0.0656
14,CTAAAAAG,0.0983
15,CAGTGTCG,0.0411
16,AGATCGAC,-0.151
17,TCCACACA,0.0338
18,AAATTCGA,0.0174
19,GGCATTGA,-0.0931
20,ATGCACTG,-0.0118
21,AATATTTA,0.122
22,CACGATAG,0.0203
23,AGTTACAG,0.0836
24,ACACGGTC,0.349
25,AGCGGAAT,-0.148

row,Sequence,PBM E-score
1,CGAACGCC,-0.101
2,GATCATTA,0.103
3,GCAGTCAA,-0.202
4,AGCTGGGC,-0.224
5,CCAAATGA,0.0561
6,GTCGTAAA,0.213
7,AAAGTGTG,0.0664
8,AAAACTCC,-0.12
9,CCAACACC,-0.148
10,CACTACTC,-0.0087
11,ACCAAAGA,0.108
12,TAGCAATA,-0.00501
13,ATTGGGAG,-0.145
14,CGTATAGC,-0.0266
15,AGAACAAT,0.25
16,CCGGGACC,-0.322
17,AAGACCAT,-0.234
18,GAAGGGAC,-0.241
19,ATGTTTCA,0.0505
20,CCTATAGA,0.191
21,CCCCGAAG,-0.083
22,AAGCTGAT,0.0408
23,GAGATCAA,0.0475
24,CGTATATA,0.163
25,CTCACAAG,-0.0197

row,Sequence,PBM E-score
1,AATTTTCG,0.0714
2,AGGACAAG,-0.0114
3,GGCTACAC,0.19
4,ACAAGTAC,0.248
5,CACAGCAC,0.2
6,GACAGGTA,0.25
7,AGGGAGAG,-0.228
8,AAAGACGA,-0.0386
9,GGATCGCC,-0.0978
10,GGATCAAA,-0.025
11,CATTGAGG,-0.135
12,AGCACTAA,-0.138
13,AGGTAGGC,0.0978
14,CACGTCGA,0.144
15,CCTTGGTA,0.239
16,ATCCATGG,-0.163
17,CTAAATCC,-0.219
18,GCTTGTAA,0.318
19,AGTTCTCC,-0.261
20,AACGCTAA,-0.0213
21,CTTTGGTC,0.0136
22,CGGGATTC,-0.155
23,ATGCATTG,0.00346
24,AGGGGCCG,-0.245
25,CTCCTAAG,-0.0118

row,Sequence,PBM E-score
1,GGGTGATA,-0.292
2,CCGATAAA,-0.181
3,CACAGACA,0.141
4,AACAGGTC,0.0905
5,ATGAAAAC,0.148
6,TGACAGAA,0.0993
7,ACTACACA,0.331
8,CAGATGGA,-0.102
9,CGCGATAA,0.0448
10,AGAGTCCG,-0.163
11,AGAGTTCC,-0.135
12,ACCTTGTC,-0.0136
13,ACTCCGTG,-0.136
14,GATATACA,0.229
15,GACCATCC,-0.292
16,CGAGGTCC,-0.25
17,AAACCTCT,-0.128
18,ATTCCATG,0.0576
19,CTATGCCC,-0.264
20,ATTACGCA,0.354
21,AAACTGGG,0.00591
22,GCACACCA,0.143
23,ATTCTTCC,-0.101
24,CCCACTCC,-0.263
25,AAGCCACA,-0.0593

row,Sequence,PBM E-score
1,CATCTCCG,0.0455
2,CCGCCATA,-0.116
3,GCACTATA,0.141
4,AACGACCC,-0.0298
5,ATGTCTGC,0.0123
6,TCGCGTCA,0.127
7,CCCGGAGC,-0.147
8,GTCCATTA,-0.0171
9,CATGGAAG,0.0189
10,ATGACGGG,-0.146
11,ATTACATG,0.435
12,ACTCTGTA,0.127
13,AAAGTAGC,-0.0505
14,AAGCAATC,-0.0271
15,ATAGGTTC,0.271
16,GTTCGAAA,-0.0506
17,AAGTTTTA,0.112
18,CTTATGAA,-0.068
19,TACAGTAA,0.194
20,CGTTATCA,0.0865
21,AACCCCCT,-0.0403
22,AAGACAGC,-0.123
23,ATTTTAAC,0.234
24,ATTCACCC,-0.106
25,TCCCGGAA,-0.147

row,Sequence,PBM E-score
1,AGCTTCAA,-0.127
2,AGAATCCT,0.109
3,TAGTGTCA,-0.167
4,TACGTTGA,0.216
5,CGCTCTCA,-0.205
6,AATAGGAT,-0.00596
7,GGAATTAC,0.172
8,CTCGTTTC,-0.105
9,CCGTAATA,0.121
10,CGAGGCAC,0.411
11,CGAGAGAA,-0.186
12,TGTTCGAA,0.0393
13,AACATGAA,0.305
14,ACTCGTTG,0.0492
15,GTGGGGTA,-0.0943
16,GAGGTTGC,-0.117
17,AGAACTCC,-0.112
18,CCCTTCGA,0.0666
19,GAAATCGA,-0.0774
20,GGAACCGA,0.143
21,CGCCCGGC,-0.224
22,AGGGCGTG,-0.0673
23,CCCTCGTA,0.0162
24,AGTATATG,-0.0575
25,CATTGACA,0.247

row,Sequence,PBM E-score
1,GGAGTACC,0.0621
2,ATGAAATC,0.0905
3,ACACCCGA,-0.0126
4,GCTGAACC,-0.201
5,AAGATTCC,0.0635
6,ATATAGTC,0.0973
7,ACCACTGA,-0.0487
8,CGTGTATC,0.262
9,CCCCCTAC,-0.198
10,CCAATGAA,-0.154
11,CATCACAG,-0.0237
12,CCCCTAAC,-0.182
13,CCCGGCGA,-0.196
14,GAAGCGGA,-0.0807
15,AGGACTAT,-0.102
16,GAGCAAAC,0.0175
17,CTATCTTC,0.0112
18,GCAAACGA,-0.0677
19,ACGCGAGA,0.126
20,AACGCCAT,0.0328
21,CCAACGCG,0.137
22,CTGCATGA,-0.205
